From article PMC4336329 (PLoS ONE, 2015)
Hit rate of the full screen: of about 310,000 compounds, about 14,000 (4.5%) showed an effect of 50% or more. The effect is printed as a negative number. The list shows a part of the results.

These compounds were tested against human ether-à-go-go-related gene (hERG) potassium channel (human, UniProt Q12809) (assay: primary screen, population patch clamp on CHO cells stably expressing hERG).
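Note: peak tail current of the secondary pulse compared with the same well before compound.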

Chain of human ether-à-go-go-related gene (hERG) potassium channel (Q12809 whole entry, looked up): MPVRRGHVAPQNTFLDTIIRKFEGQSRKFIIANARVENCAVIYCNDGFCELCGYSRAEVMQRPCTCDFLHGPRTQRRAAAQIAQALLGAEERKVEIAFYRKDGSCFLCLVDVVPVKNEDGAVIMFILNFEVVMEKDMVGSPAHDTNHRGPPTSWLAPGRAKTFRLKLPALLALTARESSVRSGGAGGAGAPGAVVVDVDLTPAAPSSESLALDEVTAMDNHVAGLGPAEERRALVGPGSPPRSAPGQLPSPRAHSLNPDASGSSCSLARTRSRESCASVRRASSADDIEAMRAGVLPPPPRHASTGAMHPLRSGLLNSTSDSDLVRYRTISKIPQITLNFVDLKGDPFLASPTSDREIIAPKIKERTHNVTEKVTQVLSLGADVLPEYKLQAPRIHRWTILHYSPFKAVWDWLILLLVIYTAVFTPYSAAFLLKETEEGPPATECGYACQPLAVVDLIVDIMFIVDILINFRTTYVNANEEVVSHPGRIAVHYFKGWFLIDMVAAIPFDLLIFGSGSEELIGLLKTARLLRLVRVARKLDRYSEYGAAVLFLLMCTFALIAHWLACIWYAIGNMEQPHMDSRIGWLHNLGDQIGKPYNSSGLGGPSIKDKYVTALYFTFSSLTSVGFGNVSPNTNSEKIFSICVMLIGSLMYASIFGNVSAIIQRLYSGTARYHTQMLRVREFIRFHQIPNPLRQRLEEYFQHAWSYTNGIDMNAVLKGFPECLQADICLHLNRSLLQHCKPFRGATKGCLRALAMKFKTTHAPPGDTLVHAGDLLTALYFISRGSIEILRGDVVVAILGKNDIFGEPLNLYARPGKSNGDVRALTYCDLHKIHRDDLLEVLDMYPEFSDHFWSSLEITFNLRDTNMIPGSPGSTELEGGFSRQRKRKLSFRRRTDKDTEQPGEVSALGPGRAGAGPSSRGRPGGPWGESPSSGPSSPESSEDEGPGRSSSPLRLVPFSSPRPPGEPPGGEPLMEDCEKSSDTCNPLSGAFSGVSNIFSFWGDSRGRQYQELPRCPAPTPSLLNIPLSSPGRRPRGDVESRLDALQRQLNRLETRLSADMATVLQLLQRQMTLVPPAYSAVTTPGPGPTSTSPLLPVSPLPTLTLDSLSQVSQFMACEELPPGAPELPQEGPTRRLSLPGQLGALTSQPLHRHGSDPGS

| SMILES | hERG current change (%, negative = inhibition) at 10uM |
| --- | --- |
| O=C(NCc1ccco1)c1cccc(Nc2nc3ccc(Br)cc3[nH]2)c1 | -11.2% |
| Cc1ccc(NC(=O)c2ccccc2OCC(=O)c2ccccc2)cc1 | -3.22% |
| CN1C(C(=O)NCc2ccco2)CC2Cn3c(nc4cc5ccccc5cc43)C21 (centres unmarked) | -38.6% |
| CCS(=O)(=O)c1ccc2oc(SCC(=O)Nc3ccc(OC)c(OC)c3)nc2c1 | 9.94% |
| COc1ccc(-c2cn[nH]c2-c2ccc(OCC(=O)NN)cc2O)cc1OC | 18.3% |
| COCC(=O)Nc1sc2c(c1C(=O)OC)CCC(C)C2 (centres unmarked) | -11.8% |
| CCOc1cc2[nH]c(=S)n(C3CCN(Cc4ccccc4)CC3)c(=O)c2cc1OCC | 17.6% |
| COc1ccc(C(=O)N2CC(=O)Nc3ccccc32)cc1S(=O)(=O)N1CCCC1 | 13% |
| Cc1cccc(C(=O)NC2C(=O)NNC2c2ccc(Cl)cc2)c1 (centres unmarked) | -18.9% |
| O=C(Nc1ccccc1N1CCOCC1)c1cc2ccccc2o1 | 24.1% |
| NS(=O)(=O)c1ccc(CNS(=O)(=O)c2cc(Cl)ccc2Cl)cc1 | 4.52% |
| CCOc1ccc(N=C2C(=O)Nc3ccc(C)c(Br)c32)cc1 | 17.7% |
| CCOC(=O)C1=C(c2ccccc2)NC(=O)N(C(C)=O)C1c1cccc([N+](=O)[O-])c1 (centres unmarked) | -13.8% |
| CCOC(=O)N1CCC(NCCNC(=O)c2ccc(Cl)cc2)CC1 | -57.8% |
| CCN1CCc2c(sc(NC(=O)c3ccc(S(=O)(=O)N4CCCC4)cc3)c2C(=O)NC)C1 | -21.7% |
| COc1cccc(-n2c(SCC(=O)NCC3CCCO3)nc3c([nH]c4ccccc43)c2=O)c1 (centres unmarked) | -22.5% |
| Cc1ccc(C(=O)N2CCN(S(=O)(=O)c3ccccc3)CC2)cc1 | 8.16% |
| O=[N+]([O-])c1cccc(NC(=S)N2CCCC2)c1 | 7.59% |
| COc1ccc(-n2nc([N+](=O)[O-])c(=NCCc3cccc(C)c3)n2O)cc1 | -0.355% |
| COc1cccc(C(=O)C2CCCN(C(=O)c3cccc(C#CC(C)(C)O)c3)C2)c1 (centres unmarked) | -18% |
| O=C(NCc1cccc(C(F)(F)F)c1)C1CC(c2ccc(C(F)(F)F)cc2)=NO1 (centres unmarked) | 24.9% |
| CC(C)(C)Nc1nc(N2CCCC2)nc(N2CCCC2)n1 | -12.9% |
| Cc1ccc(S(=O)(=O)N2CC(=NO)C2)cc1 | -3.51% |

| SMILES | hERG current change (%, negative = inhibition) at 10uM |
| --- | --- |
| O=C(/C=C/c1ccccc1Cl)Nc1ccccc1 | -0.363% |
| CCCCN(CC)C(=O)C1CCC(=O)N(c2ccc(OC)cc2)C1c1ccc(OC)c(OC)c1 (centres unmarked) | -10.2% |
| CC(CN1C(C)CCCC1C)OC(=O)c1cccc(F)c1.Cl (centres unmarked) | -13% |
| COc1ccccc1/C=N/Nc1cc(C)nc2ccc(C)cc12 | 7.89% |
| CCC1=C(OC(=O)N(CC)CC)N2C(=O)OC(=NCCc3c[nH]c4ccccc34)[C@]2(C)[C@H]2C1=CC[C@H]1C(=O)NC(=O)[C@H]12 | 2.9% |
| Cc1ccc(-n2c(N)c(C(=O)Nc3ccccc3F)sc2=S)cc1C | 22.9% |
| CCN(CC)S(=O)(=O)c1ccc(N2CCOCC2)c(NC(=O)c2cc(=O)[nH]c3ccccc23)c1 | -12.1% |
| Nc1nc(CSc2nc3ccccc3s2)nc(Nc2ccccc2)n1 | 6.54% |
| CCCCN(C)C(=O)Cn1ncc2c3ccccc3n(CCC)c2c1=O | -42% |
| Cc1cc(C(=O)NCc2cc(C(=O)O)co2)co1 | 13.4% |
| COc1ccc(C(=O)COC(=O)c2nn(C)c(=O)c3ccccc23)c(OC)c1 | 17.7% |
| Cc1cc(S(=O)(=O)Nc2nc(CN3CCOCC3)nc3sc4c(c23)CCCC4)ccc1F | -17.2% |
| Cc1ccc(OCCCC(=O)NC(C)c2ccccc2)c(C)c1 (centres unmarked) | -34.8% |
| CN(C)c1nc(Nn2cnnc2)nc(N(C)C)n1 | 9.61% |
| NC(=O)CSc1nc2sc(-c3ccccc3)cc2c(=O)n1N | 11% |
| Cc1ccccc1-c1cc2c(nn1)-c1ccccc1C2=O | 5.78% |
| Cc1ccc(-c2nc3cccnc3s2)cc1NS(C)(=O)=O | 2.25% |
| COc1ccc(-c2nc3c(c(=O)[nH]c(=O)n3Cc3ccccc3)n2C)cc1 | 15% |
| CCOc1ccc(S(=O)(=O)Nc2ccc(C(=O)NCC3(N4CCCCC4)CCCCC3)cc2)cc1 | -45.8% |
| COc1cccc(C2(O)CCSCC2CN(C)C)c1.Cl (centres unmarked) | 10.8% |
| O=C(CN1CCC(NC(=O)Cc2ccccc2)CC1)Nc1cccc2ccccc12 | -27% |
| Cc1cc(C)nc(N2CCC(C(=O)NC3CC3)CC2)n1 | -4.98% |
| CCOc1ccccc1C1C2=C(COC2=O)Nc2cc3c(cc21)OCO3 (centres unmarked) | 17.9% |

| SMILES | hERG current change (%, negative = inhibition) at 10uM |
| --- | --- |
| Cc1ccc(CN(Cc2cccnc2)C(=O)CN2C(=O)COc3ccccc32)o1 | -1.88% |
| COc1ccc(N2CC(C(=O)Nc3ccc4c(c3)OCO4)CC2=O)cc1 (centres unmarked) | 4.3% |
| Cc1ccc(-c2nnn(CC(=O)N(CC(=O)NC3CCCC3)c3cccc(F)c3)n2)o1 | 11.4% |
| CCOc1ccc(-n2c(SC(C)C)nc3c(c2=O)SCC3)cc1 | 18.4% |
| CNC(=S)N(CCc1c(C)[nH]c2ccc(F)cc12)Cc1cccnc1 | -14.1% |
| Cc1ccc(N2C(=N)SCC2=O)cc1Cl | -70.6% |
| Cc1nc2nc(SCC(=O)NCCCN3CCCC3)nn2c(C)c1Cc1ccccc1Cl | -8.22% |
| CCOC(=O)C1=C(C)NC(=O)NC1c1ccc(N(CC)CC)cc1 (centres unmarked) | -6.39% |
| c1ccc(CCc2nc(-c3cccnc3)no2)cc1 | 4.59% |
| CCOC(=O)C1CCN(Cc2cc(=O)n3c(-c4ccccc4)csc3n2)CC1 | -8.55% |
| CC(=O)Nc1ccc(C(=O)CSc2nc3ccc(C)cc3[nH]2)cc1 | -9.01% |
| Cc1nc2scc(C)n2c(=O)c1S(=O)(=O)NCc1ccc(F)cc1 | 16.8% |
| COC(=O)OCC12CCC(O1)C1(C)C(=O)OCC21 (centres unmarked) | 30.3% |
| Cc1cccc(C(=O)Oc2csc(=S)n2C(=O)c2cccc(C)c2)c1 | 6.76% |
| COc1ccc(C)cc1NS(=O)(=O)c1ccc(NS(=O)(=O)c2ccc(NC(C)=O)cc2)cc1 | -3.81% |
| Cc1ccc(Nc2nc3c([nH]2)c(=O)[nH]c(=O)n3C)cc1 | 7.95% |
| COC(=O)c1ccc(CSCC(=O)Nc2ccccc2)cc1 | 33.3% |
| Cc1ccc(OCCn2cncn2)c([N+](=O)[O-])c1 | 15.4% |
| COc1c(C)cc(Br)cc1C(=O)NC(=S)Nc1ccc(Cl)c(C(=O)O)c1 | 40% |
| O=C1CC(N2CCN(Cc3ccc4c(c3)OCO4)CC2)C(=O)N1CCc1ccccc1 (centres unmarked) | -7.69% |
| COc1ccccc1OCC(O)CN1CCN(CC(=O)Nc2c(C)cccc2C)CC1.Cl (centres unmarked) | -1.29% |
| Cn1c(SCC(=O)N2CCCC2)nc2ccccc21 | 39.9% |
| O=c1cc(CO)oc(CN2CCN(c3cccc(C(F)(F)F)c3)CC2)c1O | 0.339% |

| SMILES | hERG current change (%, negative = inhibition) at 10uM |
| --- | --- |
| COc1ccc(CNC(=O)COc2cccnc2[N+](=O)[O-])cc1 | -1.75% |
| COc1ccc(C(=O)OCc2c(C)noc2C)cc1 | 12.9% |
| O=C(Nc1nnc(C(F)(F)F)s1)c1ccc(Br)s1 | 2.36% |
| CC1CCCN(CCCNC(=O)c2nn(C)c3c2CS(=O)(=O)c2ccccc2-3)C1 (centres unmarked) | -39.8% |
| COC(=O)N/N=C/c1cccs1 | 11.1% |
| Cl.O=C(O)c1ccc(-c2nc3ccccc3[nH]2)cc1 | 27.8% |
| CCN(CC)S(=O)(=O)c1ccc(O)c(C(=O)OCC(=O)N2CCCC2)c1 | 11.4% |
| O=Cc1cn(CC(=O)N2CCc3ccccc32)c2ccccc12 | 9.16% |
| CC(C)N=c1scc(-c2cccs2)n1/N=C/c1ccc(O)c(O)c1O | 6.49% |
| COc1ccc(C2CC(c3ccccc3)Nc3nc(N)nn32)cc1 (centres unmarked) | -25% |
| CCC(c1nnnn1Cc1cccs1)N1CCN(c2nc3ccccc3s2)CC1 (centres unmarked) | -56.1% |
| COc1ccc(-c2cc(C(=O)N3CCN(Cc4ccccc4)CC3)no2)cc1OC | -10.4% |
| Cc1ccc2c(c1)Oc1ccc(NC(=O)CCCl)cc1C(=O)N2 | -1.32% |
| CCCCNC(=O)c1ccc(S(=O)(=O)c2ccc(Cl)cc2)c(NC(C)=O)c1 | -17.4% |
| CC(=O)c1c(C)[nH]c2ccccc2c1=O | 4.43% |
| CC(C1CC2CCC1C2)n1c(COc2ccccc2F)nnc1SCC(N)=O (centres unmarked) | -11.5% |
| CN(CC(=O)Nc1ccccc1Cl)CC(=O)Nc1ccccc1[N+](=O)[O-] | -28.6% |
| COc1ccc(CN2CCN(Cc3c[nH]c4ccccc34)CC2CCO)c(F)c1 (centres unmarked) | -41.4% |
| CCCCOC(=O)Cn1c(=O)n(CC(=O)OCCCC)c2cc(C)ccc21 | -69.4% |
| COc1cc(C(=O)OCc2cc3ccccc3[nH]c2=O)cc(OC)c1OC | 3.83% |
